According to the supplement of paper PMC10369915:
Some of the results follow. Rule as the data show it: active = 3.2 or more and inactive = the rest. Only a few entries rise above the background.

What was measured:
Test in all cases: enrichment score (SH2-bound / input frequency) (ratio); bacterial display of known human phosphotyrosine sites (pTyr-Var adds point mutants) read by sequencing; higher = stronger binding; tyrosines were phosphorylated by kinases first
Conditions in all cases: peptide library: pTyr-Var
SHP2 C-SH2 domain E139D = molecular target: SHP2 C-SH2 domain E139D
[1] = molecular target: SHP2 C-SH2 domain wild-type
SHP2 N-SH2 domain L43F = molecular target: SHP2 N-SH2 domain L43F
SHP2 N-SH2 domain T42A = molecular target: SHP2 N-SH2 domain T42A
SHP2 N-SH2 domain T52S = molecular target: SHP2 N-SH2 domain T52S
[2] = molecular target: SHP2 N-SH2 domain wild-type
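Also: displayed peptides selected on beads carrying the immobilized SH2 domain, with library peptides lacking any tyrosine serving as negative controls.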

| Binder | enrichment score (SHP2 C-SH2 domain E139D) | enrichment score [1] | enrichment score (SHP2 N-SH2 domain L43F) | enrichment score (SHP2 N-SH2 domain T42A) | enrichment score (SHP2 N-SH2 domain T52S) | enrichment score [2] |
| --- | --- | --- | --- | --- | --- | --- |
| CTTIHYNYMCY [TP53_Y234_N239Y] | active: 4.81 | active: 5.22 | active: 4.07 | active: 3.43 | active: 4.15 | active: 3.35 |
| CTTIHYNFMCF [TP53_Y234_N239Y_YF] | inactive: 3.14 | active: 3.36 | inactive: 3.05 | inactive: 2.32 | inactive: 2.86 | active: 3.46 |
| CATIHYNYMCN [TP53_Y234_T230A] | active: 3.98 | active: 5.59 | inactive: 2.57 | inactive: 2.5 | inactive: 2.74 | inactive: 2.25 |
| CATIHYNFMCN [TP53_Y234_T230A_YF] | active: 3.57 | inactive: 3.12 | inactive: 3.06 | inactive: 2.57 | inactive: 2.91 | inactive: 3.05 |
| CNTIHYNYMCN [TP53_Y234_T230N] | active: 3.81 | active: 5.51 | inactive: 2.13 | inactive: 2.16 | inactive: 2.14 | inactive: 1.8 |
| CPTIHYNFMCN [TP53_Y234_T230P_YF] | inactive: 2.92 | inactive: 3.07 | inactive: 3.01 | inactive: 2.81 | inactive: 3.19 | inactive: 3.01 |
| CTAIHYNYMCN [TP53_Y234_T231A] | active: 3.98 | active: 5.25 | inactive: 2.85 | inactive: 2.6 | inactive: 2.7 | inactive: 2.27 |
| CTNIHYNYMCN [TP53_Y234_T231N] | active: 3.24 | active: 5.03 | inactive: 2.61 | inactive: 2.4 | inactive: 2.47 | inactive: 2.16 |
| CTSIHYNFMCN [TP53_Y234_T231S_YF] | active: 3.91 | active: 3.37 | active: 3.42 | inactive: 2.68 | inactive: 3.01 | inactive: 2.94 |
| CTTIHDNYMCN [TP53_Y234_Y234D] | inactive: 1.63 | active: 3.6 | inactive: 1.26 | inactive: 0.923 | inactive: 0.944 | inactive: 0.895 |
| CTTIHFNYMCN [TP53_Y234_Y234F] | active: 4.13 | active: 4.22 | active: 3.7 | inactive: 2.88 | inactive: 2.89 | inactive: 3 |
| CTTIHHNFMCN [TP53_Y234_Y234H_YF] | inactive: 3.09 | inactive: 2.42 | active: 3.4 | inactive: 2.45 | inactive: 3.03 | inactive: 2.25 |
| CTTIHNNYMCN [TP53_Y234_Y234N] | inactive: 1.92 | active: 3.74 | inactive: 1.64 | inactive: 1.43 | inactive: 1.63 | inactive: 1.25 |
| CTTIHQNYMCN [TP53_Y234_Y234Q] | inactive: 2.74 | active: 4.41 | inactive: 2.13 | inactive: 1.69 | inactive: 1.92 | inactive: 1.87 |
| CTTIHSNYMCN [TP53_Y234_Y234S] | inactive: 2.69 | active: 4.21 | inactive: 2 | inactive: 1.87 | inactive: 2.29 | inactive: 1.98 |
| CTTIHYNFMCN [TP53_Y234_Y236F] | active: 4.44 | active: 3.79 | active: 4.06 | inactive: 2.9 | active: 3.68 | active: 3.54 |
| PLEGEYFTLQI [TP53_Y327_D324E] | inactive: 1.96 | inactive: 2.51 | inactive: 2.4 | inactive: 2.38 | inactive: 2.08 | inactive: 1.74 |
| PLDGEYVTLQI [TP53_Y327_F328V] | inactive: 0.708 | inactive: 0.967 | inactive: 1.04 | inactive: 0.838 | inactive: 0.835 | inactive: 0.816 |
| PLDAEYFTLQI [TP53_Y327_G325A] | inactive: 0.663 | inactive: 0.755 | inactive: 0.554 | inactive: 0.793 | inactive: 0.539 | inactive: 1.2 |
